The structures appear in SMILES notation. Out of some 340,000 compounds screened, about 6,900 (2%) were called active. Cut-off read from the data, not from the text of the source: active = inhibition above about 30%; inactive = below that, where a call was filed. Only a part is listed here, and it is no random draw. Where no call is shown, the source filed none.

What is called inhibition is the change of the read-out against control, counted positive when it falls.

Sequence of UniProt P14416 (P14416 whole entry, looked up): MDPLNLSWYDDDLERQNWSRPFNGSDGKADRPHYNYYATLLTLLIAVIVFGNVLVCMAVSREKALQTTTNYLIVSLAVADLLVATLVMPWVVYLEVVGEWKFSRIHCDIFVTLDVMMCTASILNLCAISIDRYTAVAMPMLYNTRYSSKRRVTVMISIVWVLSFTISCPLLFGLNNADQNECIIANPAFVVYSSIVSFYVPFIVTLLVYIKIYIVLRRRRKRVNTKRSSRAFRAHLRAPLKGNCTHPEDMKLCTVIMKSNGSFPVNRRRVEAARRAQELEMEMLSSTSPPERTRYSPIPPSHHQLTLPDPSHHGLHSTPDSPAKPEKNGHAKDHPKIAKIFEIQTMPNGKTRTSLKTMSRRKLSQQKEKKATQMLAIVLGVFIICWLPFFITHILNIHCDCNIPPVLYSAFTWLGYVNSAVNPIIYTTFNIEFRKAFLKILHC

In this test the target is D(2) dopamine receptor (Homo sapiens) (UniProt P14416). Nature of the test: HTS Assay for Allosteric Antagonists of the Human D2 Dopamine Receptor: Primary Screen for Antagonists. Note: 0% is about no effect. The following applies: HEK293 TREx D2 cells, calcium flux, dopamine EC80; at 10 µM; stronger effect = higher value. An outline of the steps:
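Tetracycline-induced HEK293 T-REx cells expressing D2 force-coupled to calcium signalling were dye-loaded, exposed to compound for 180 s, then challenged with an EC80 of dopamine; calcium flux was followed kinetically for a further 180 s.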
(A change in cytosolic calcium serves as a functional read-out for many receptors and channels.)
With `Cc1ccc(-c2cc(C(=O)NCCc3ccccc3)c3c(-c4ccc(C)cc4)[nH]nc3n2)cc1`, the inhibition was found to be 13.4%.

As to `CC1CC1c1ccc(/C=C(\C#N)C(=O)Nc2ccc(Cl)cc2)o1` (stereo not given), the inhibition was active: 75.7%.

As to `CCOc1ccc(N2C(=O)N(Cc3ccc(C)cc3C)c3ccccc3S2(=O)=O)cc1`, the inhibition was -0.698%.

As for `CN1CCN(c2nc3c(S(=O)(=O)c4ccc(Br)cc4)nnn3c3ccsc23)CC1`, the inhibition turned out to be 10.7%.

In the case of `CCCCc1nc(N2CCN(C(=O)c3ccco3)CC2)c(C#N)c2c1CCCC2`, the inhibition is active: 30.9%.

As for `Oc1ccc(Cl)cc1C1=Nc2ccccc2N=C(c2cccc(Br)c2)C1`, the inhibition is -0.974%.

Consider `CCc1sc(Nc2cccc(Cl)c2C)nc1-c1cc2cccc(OC)c2oc1=O`, for which the inhibition turned out to be 10.6%.

For the molecule `COc1ccc(OC)c(NC(=O)c2cc(CN3CCCC3)on2)c1`, the inhibition was -18.6%.

Regarding `COc1ccc(C(=O)NNC(=S)NC(=O)C(C)(C)C)cc1`, the inhibition was active: 61.9%.

As to `O=C(CC1C(=O)OCCN1Cc1ccccc1)Nc1cccc(C(F)(F)F)c1` (stereo not given), the inhibition is 7.48%.

`CC(=O)N1c2ccc(S(=O)(=O)N3CCCCCC3)cc2CC1C(=O)NCc1ccc(Cl)cc1` (stereo not given): the inhibition came out at 4.33%.

Turning to `COc1cccc(CNC(=O)C2CCN(S(=O)(=O)c3cn(C)cn3)CC2)c1`, the inhibition is 8.31%.

In the case of `CC1CCN(C(=O)COC(=O)c2cccc(S(=O)(=O)N(C)c3ccccc3)c2)CC1`, the inhibition was active: 43.3%.

With `O=C(Cn1cc(SCc2ccc(C(F)(F)F)cc2)c2ccccc21)N1CCCC1`, the inhibition is 8.33%.

For `COc1ccc(CNC(=O)/C(C)=C\C(=O)O)cc1`, the inhibition was active: 36.3%.

As to `CCCOc1ccc(-c2nonc2NC(=O)c2oc3ccc(C)cc3c2C)cc1OCCC`, the inhibition was 0.893%.

With `CCOC(=O)N1CCC(NC(=O)c2cnn(-c3cccc(Cl)c3C)c2C2CCN(C(=O)OC(C)(C)C)CC2)CC1`, the inhibition is -6.01%.

For the molecule `O=c1c2ccc(Cl)cc2[nH]c(=S)n1CCCN1CCOCC1`, the inhibition is active: 33.5%.

Turning to `COc1ccc(NC(=O)CSc2oc(-c3ccco3)nc2S(=O)(=O)c2ccc(Br)cc2)c(OC)c1`, the inhibition was -18.2%.

Turning to `CCc1ccc2oc(-c3cc(NC(=O)C(C)C)cc(C)c3O)nc2c1`, the inhibition was -6.14%.

For the molecule `CC(C)Cn1c(=O)c2sccc2n2c(CCCC(=O)NCc3ccccc3Cl)nnc12`, the inhibition is -1.42%.

Regarding `Cc1cccc(-c2nc3c4ccccc4nc(NCc4ccc(Cl)cc4)n3n2)c1`, the inhibition is 11%.

For the molecule `CC(=O)c1ccc(NC(=O)CSc2cn(CC(=O)N3CCCCCC3)c3ccccc23)cc1`, the inhibition was -20.7%.

For the molecule `CCOC(=O)c1ccc(NC(=O)N2CCN(C3CCCCC3)CC2)cc1`, the inhibition is active: 34.4%.

On to `Cc1ccc(C)c(NC(=O)Cn2cc(C(=O)c3ccc(Cl)cc3)c(=O)c3ccc(C)nc32)c1`, for which the inhibition was 0.641%.

Turning to `COc1cccc(OC)c1Oc1ccc(C(F)(F)F)cn1`, the inhibition was active: 66.1%.

Consider `CC1CCN(S(=O)(=O)c2ccc(C(=O)Nc3sc4c(c3C(N)=O)CC(C)(C)NC4(C)C)cc2)CC1`, for which the inhibition worked out at 6.67%.

Turning to `Cc1cccc(C)c1-n1ncc(C(=O)N2CCN(c3ccccn3)CC2)c1C1CCN(C(=O)OC(C)(C)C)CC1`, the inhibition is -8%.

For `COc1cc(NC(=O)CSc2nc(-c3ccc(C)cc3)nc3c2Cc2ccccc2O3)cc(OC)c1`, the inhibition was -18.4%.

`N#Cc1ccc(CSc2nc3c(c(=O)[nH]2)CCC3)cc1`: the inhibition amounted to 10.1%.

As to `CCC(=O)Nc1ccc(-c2nnc3c4ccccc4c(C)nn23)cc1`, the inhibition is -5.85%.

`O=C(NCc1ccccc1)c1ccc2c(c1)CCN2S(=O)(=O)c1ccccc1`: the inhibition is -7.4%.

For the molecule `CCOC(=O)c1[nH]c(C)c(CCC(=O)NCc2ccccc2Cl)c1C`, the inhibition worked out at 10.8%.

Take `CNC(=O)c1ccc(Nc2nnc(-c3ccc(C)c(S(=O)(=O)N(C)C)c3)c3ccccc23)cc1`: the inhibition came to 0.654%.

For the molecule `COCCn1c(=O)[nH]c2cc(C(=O)NCCCN3CCN(c4ccc(F)cc4)CC3)ccc2c1=O`, the inhibition was active: 58%.

As to `CCCc1ccc(S(=O)(=O)N2CCC(Oc3ccc(-n4cnnn4)cc3)CC2)cc1`, the inhibition came out at 7.81%.

As to `Cc1cc(C)cc(OCCCn2c(CCNC(=O)C3CCCCC3)nc3ccccc32)c1`, the inhibition is -14.1%.

As to `CCCCC(CC)CNC(=O)C1CCC(CNS(=O)(=O)c2cccc3nsnc23)CC1` (stereo not given), the inhibition is 2.43%.

On to `CCC(=O)N1c2ccc(S(=O)(=O)N3CCC(C)CC3)cc2CC1C` (stereo not given), for which the inhibition was determined as 21.5%.

With `COc1ccc(CCNC(=O)CCCn2c(=O)c3ccccc3n(Cc3c(C)cc(C)cc3C)c2=O)cc1OC`, the inhibition was -9.64%.

Turning to `CCc1ccccc1NC(=O)CSc1nc(-c2ccccc2OC)nc2c1Cc1c(CO)cnc(C)c1O2`, the inhibition amounted to 14.6%.

Take `COC(=O)C(CCSC)NC(=O)c1cc2c(n(-c3ccc(C)cc3)c1=O)CC(C)(C)CC2=O` (stereo not given): the inhibition is -9.05%.

`CC(=O)c1cc(C(=O)Nc2cc(C)cc(C)c2)c2ccccn12`: the inhibition came out at 13.5%.

For `Cc1ccc2c(c1)cc1c(=O)n(CC(=O)NC3CCCCC3)nc(C)n12`, the inhibition amounted to 1.92%.

For the molecule `CCOC(=O)CC1c2cc(OCC)c(OCC)cc2CCN1C(=O)Nc1cccc(Cl)c1` (stereo not given), the inhibition turned out to be 6.18%.

Regarding `Cc1cccn2c(=O)c3cc(C(=O)NCc4ccccc4)c(=N)n(CCOCCO)c3nc12`, the inhibition is -18.6%.

As to `Cc1ccc(S(=O)(=O)c2nc(-c3cccc(C)c3)oc2N2CCN(c3ccccc3)CC2)cc1`, the inhibition came out at 1.68%.

With `Cc1ccc(CNC(=O)c2ccc3c(=O)n(-c4ccccc4)c(=O)[nH]c3c2)cc1`, the inhibition was -0.496%.

As for `CCCSc1ncc(Cl)c(C(=O)Nc2nc3ccc(OCC)cc3s2)n1`, the inhibition is -1.95%.

As for `COC(=O)c1sc2cccc(F)c2c1S(=O)(=O)N1CCN(c2ccc(F)cc2)CC1`, the inhibition turned out to be 5.31%.

With `Cc1nc2nc(SCC(=O)NCCc3ccc(Cl)cc3)nn2c(C)c1Cc1ccccc1`, the inhibition was -4.48%.

For `COc1cc(OC)c(NC(=O)NCc2ccc3c(c2)CCN3C(=O)c2ccccc2)cc1Cl`, the inhibition was 7.52%.

For `COc1ccc(NC(=O)CSc2nc3c(oc4ccccc43)c(=O)n2-c2ccc(C)c(C)c2)cc1`, the inhibition was found to be 4.71%.

Regarding `COc1cc2c(cc1OC)C1C/C(=N\O)C(CC(C)C)CN1CC2` (stereo not given), the inhibition is active: 59.7%.

As to `CCOC(=O)c1c(NC(C)=O)c2c3c(sc2n1Cc1nc(-c2ccccc2C)oc1C)CCCC3`, the inhibition was -13.8%.

As to `O=C(Nc1nc2ccc(F)cc2s1)c1nc(S(=O)(=O)Cc2ccccc2)ncc1Cl`, the inhibition was -1.13%.

`CC1CN(C(=O)CCC(=O)NCc2ccc(F)cc2)c2cc(Cl)ccc2O1` (stereo not given): the inhibition was determined as 10.4%.

Regarding `O=C(CN1C(=O)CCSc2ccccc21)Nc1ccccc1F`, the inhibition was -2.98%.

On to `CCOc1ccc(CCNC(=O)C2COc3ccccc3C2)cc1OCC` (stereo not given), for which the inhibition is -2.89%.

As for `CC(C)CCNC(=O)C1CCC(Cn2c(=O)c3sccc3n(CC(=O)NC(C)C)c2=O)CC1` (stereo not given), the inhibition worked out at 2.95%.

The values above are taken from PubChem BioAssay AID485344 (National Center for Advancing Translational Sciences (NCATS), 2010).
